Source: PubChem BioAssay AID624296 (National Center for Advancing Translational Sciences (NCATS), 2012)
The campaign covered roughly 350,000 compounds. About 9,900 (2.8%) were called active. The shares of active, inactive and inconclusive entries below differ from those in the screen. Calls come from the whole dose curve; as a rule, active = well fitted activation curve with a large enough effect; inconclusive = small, poorly fitted or top-dose-only effect; inactive = no such curve, though single readings can be large or run the other way. No potency is given beside an inconclusive call; the fits are too rough.
Potency is the fitted concentration of half-maximal effect; tags give direction and shape of the fitted curve.

Assay: A quantitative high throughput screen for small molecules that induce DNA re-replication in MCF 10a normal breast cells. Note: nearly all actives have a fitted effect of over 50% in size.
Conditions: MCF 10A DNA re-replication, Hoechst nuclear intensity, 48 h; series mostly up to 46.1 µM
For `N#CC1=C(N)OC2=C(C(=O)CC(c3ccccc3)C2)C1c1ccc2c(c1)OCO2` (configuration not stated), the Potency was inconclusive [activator, single point]. In the case of `Cc1cc(C)n(C(=O)CN(C)S(=O)(=O)c2ccc([N+](=O)[O-])cc2)n1`, the Potency is reported as inconclusive [activator, partial curve, poor fit]. In the case of `C[C@H](CO)N1C[C@H](C)[C@@H](CN(C)Cc2ccc(Cl)c(Cl)c2)Oc2c(NS(=O)(=O)c3cccs3)cccc2C1=O`, the Potency is reported as “inactive”. With `CCc1nnc(NS(=O)(=O)c2ccc(NC(=S)NC(=O)c3ccc(OC)c(OC)c3)cc2)s1` the Potency was inconclusive [activator, single point]. In the case of `CC1CCCCC12NC(=O)N(CC(=O)N1CCN(C(=O)c3ccco3)CC1)C2=O` (configuration not stated), the Potency is reported as “inactive”. In the case of `CCn1c(Cn2nnc(-c3ccccc3)n2)nnc1SCc1ccc(Cl)c(Cl)c1`, the Potency is reported as inconclusive [activator, single point]. With `Cc1cc(=O)n(CCCc2ccccc2)[nH]1` the Potency was inconclusive [activator, partial curve, poor fit]. For `Cc1ccc(C23CC4CC(CC(C(=O)N(C)C)(C4)C2)C3)cc1`, the Potency was inconclusive [activator, partial curve, poor fit]. With `c1cncc(-c2noc(C34CC5CC(CC(C5)C3)C4)n2)c1` the Potency was inconclusive [activator, partial curve]. For `Cc1nc2ccc(C(=O)N3c4ccccc4CC3C)cc2s1` (configuration not stated), the Potency was inconclusive [activator, single point]. In the case of `Nc1ccccc1O`, the Potency is reported as inconclusive [activator, partial curve, poor fit]. In the case of `COc1cc(/C=C2\CC/C(=C\c3ccc(OCCO)c(OC)c3)C2=O)ccc1OCCO`, the Potency is reported as inconclusive [activator, partial curve, poor fit]. For `CC1=CC(C)[C@H](/C=N/n2c(=O)[nH]c3c([nH]c4ccc(C)cc43)c2=O)C(C)C1` (some centres not stated), the Potency was active: 9.2 µM. In the case of `Cc1ccc(S(=O)(=O)CNC(=S)c2ccc3ccccc3c2)cc1`, the Potency is reported as “inactive”. For `CC(C(=O)Nc1cccc(S(=O)(=O)N2CCOCC2)c1)N1CCN(c2ccc(F)cc2)CC1` (configuration not stated), the Potency was inconclusive [activator, single point]. In the case of `OC(c1ccc(F)cc1)C(CN1CCOCC1)c1ccccc1` (configuration not stated), the Potency is reported as inconclusive [activator, partial curve, poor fit]. With `C=CCN(c1ccccc1Cl)S(=O)(=O)c1cccc(C(=O)NCCc2ccc(OC)cc2)c1` the Potency was “inactive”. For `C[C@@]12C(=O)N(c3cccc(F)c3)C(=O)N1[C@H](c1ccc(F)cc1)[C@@H]1C(=O)N(C3CCCCC3)C(=O)[C@@H]12`, the Potency was “inactive”. With `O=C(NCCCn1ccnc1)c1ccc(-c2cccc(Cl)c2Cl)o1` the Potency was inconclusive [activator, single point]. In the case of `COCCN(Cc1ccc(C)c(Br)c1)C(=O)Cn1cnc(S(=O)(=O)N2CCCC2)c1`, the Potency is reported as inconclusive [activator, single point]. For `Cc1cc(/C=C2\Sc3ccccc3N2C)cc(C)[n+]1CC1CCCO1` (configuration not stated), the Potency was inconclusive [activator, partial curve, poor fit]. With `CC(=O)Nc1ccc(NC(=O)C(C)Oc2ccc(C)nc2[N+](=O)[O-])cc1` (configuration not stated) the Potency was “inactive”. In the case of `Cc1cc(C(=O)NNC(=O)/C=C/c2ccccc2Cl)c(C)o1`, the Potency is reported as “inactive”. With `CCCOc1ccc(/C=N/NC(=O)c2ccc3c(c2)OCO3)c(OCCC)c1` the Potency was inconclusive [activator, full curve, poor fit]. For `CCCC(=NCCc1c(C)[nH]c2ccccc12)C1=C(O)CC(c2ccccc2)CC1=O` (configuration not stated), the Potency was active: 1.46 µM. In the case of `CC(C)(C)NC(=O)COC(=O)c1c2c(nc3ccccc13)CCC2`, the Potency is reported as “inactive”. With `CCCC(=O)Nc1ccc(C(=O)NNC(=S)NC(=O)c2cccs2)cc1` the Potency was inconclusive [activator, single point]. For `COc1cc([N+](=O)[O-])ccc1NC(=O)NN1CCN(C)CC1`, the Potency was inconclusive [activator, partial curve, poor fit]. For `Cn1c2ccccc2c(=O)c2cc(C#Cc3ccsc3)ccc21`, the Potency was inconclusive [activator, full curve, poor fit]. In the case of `COc1ccccc1NC(=O)c1coc(=O)c(Br)c1`, the Potency is reported as inconclusive [activator, single point]. With `Cc1ccc2[nH]c3c(=O)n(CCN4CCNCC4)cnc3c2c1` the Potency was inconclusive [activator, partial curve, poor fit]. For `CC1CCCCN1c1nc(-c2ccncc2)nc2ccccc12` (configuration not stated), the Potency was inconclusive [activator, single point]. With `COc1ccc(/C=C2\SC(=S)N(CCC(=O)NCCCN3CCOCC3)C2=O)cc1` the Potency was inconclusive [activator, partial curve]. In the case of `COc1ccccc1C(=O)COC(=O)c1ccc(N(C)C)cc1`, the Potency is reported as “inactive”. In the case of `O=C(Nc1ccc(F)cc1F)c1csc(-c2ccccc2)n1`, the Potency is reported as inconclusive [activator, single point]. With `N#Cc1nc(-c2cccc3ccccc23)oc1NCC1CCCO1` (configuration not stated) the Potency was inconclusive [activator, single point]. For `Cc1cc(N2CCN(C)CC2)nc2ccc(NC(=O)c3ccc4c(c3)OCO4)cc12`, the Potency was inconclusive [activator, partial curve, poor fit]. In the case of `COc1ccc(/C=C/C(=O)c2cc(F)ccc2OC(=O)c2ccccc2)cc1OC`, the Potency is reported as inconclusive [activator, single point]. In the case of `COc1ccc(C(=O)Nc2ccc(C)c(S(=O)(=O)N3CCCCCC3)c2)cc1`, the Potency is reported as inconclusive [activator, partial curve, poor fit]. With `CN1CCN(CCc2nc3cc(NC(=O)COc4ccccc4)ccc3n2C)CC1` the Potency was inconclusive [activator, full curve, poor fit]. In the case of `Cc1ccc(-c2nnc(CSc3nnc(COc4ccccc4)n3-c3ccccc3)o2)cc1`, the Potency is reported as active: 11.6 µM. With `COc1ccc(CCn2c(N)c(C#N)c3nc4ccccc4nc32)cc1OC` the Potency was inconclusive [activator, partial curve, poor fit]. In the case of `COc1cccc(C(=O)OCC(=O)c2[nH]c(C)c(C(C)=O)c2C)c1`, the Potency is reported as “inactive”. With `O=C(Nc1ccc(N2CCCC2)c(Cl)c1)c1ccc([N+](=O)[O-])o1` the Potency was active: 2.91 µM. In the case of `COc1ccc(CCNC(=O)CN2C(=O)NC(Cc3c[nH]c4ccccc34)C2=O)cc1` (configuration not stated), the Potency is reported as “inactive”. In the case of `CC1Nc2ncnc(N3CCc4ccccc4C3)c2N(Cc2ccc(Cl)cc2)C1=O` (configuration not stated), the Potency is reported as “inactive”. In the case of `C=CCOc1c(Cl)cc(C(=S)N2CCCC2)cc1OCC`, the Potency is reported as active: 11.6 µM. For `CC(=O)n1cc([C@@H]2C=C(C(=O)NCc3ccccc3)O[C@H](OCCCCO)C2)c2ccccc21`, the Potency was inconclusive [activator, partial curve, poor fit]. With `CCC(Cc1ccccc1)NC(=O)/C=C/c1ccco1` (configuration not stated) the Potency was inconclusive [activator, partial curve, poor fit]. With `CN(NC(=O)c1cccc(Cl)c1)c1nc(-c2ccccc2)nnc1C(F)(F)F` the Potency was inconclusive [activator, partial curve, poor fit]. In the case of `COc1cc(/C=C/c2ccc3cccc(O)c3n2)cc(Br)c1OC`, the Potency is reported as active: 14.6 µM. With `CC1(C)Cc2c(cnn2-c2cccc(F)c2)C(NC(=O)C2CCOCC2)C1` (configuration not stated) the Potency was inconclusive [activator, partial curve, poor fit]. For `COc1ccc(CN2CCNC(=O)C2CC(=O)N(C)CCC2CCOCC2)c(OC)c1` (configuration not stated), the Potency was inconclusive [activator, single point]. With `Cn1ccnc1-c1nnn(-c2ccc(Cl)c(Cl)c2)n1` the Potency was inconclusive [activator, full curve, poor fit]. For `CC(=NCCCn1ccnc1)c1c(-c2ccccc2)[nH]n(-c2nc3ccccc3s2)c1=O`, the Potency was inconclusive [activator, single point]. With `CNC1=CC(=O)CC(c2ccccc2)C1` (configuration not stated) the Potency was inconclusive [activator, partial curve, poor fit]. With `Nc1c(CO)nnn1-c1ccccc1` the Potency was “inactive”. For `CCOc1ccc(S(=O)(=O)N2CC(=O)Nc3ccccc32)cc1`, the Potency was inconclusive [activator, single point]. With `CC(=O)N1CCc2c(sc(NC(=O)C3CCCN3S(=O)(=O)c3cccs3)c2C(N)=O)C1` (configuration not stated) the Potency was “inactive”. With `COc1cccc(NC(=O)CN(C)C(=O)/C=C/c2cc(OC)ccc2OC)c1` the Potency was “inactive”. For `Cc1no[n+]([O-])c1COc1ccc(/C=C2\NC(=S)NC2=O)cc1`, the Potency was “inactive”. With `COc1ccc(NS(=O)(=O)c2ccc3c(c2)n(C)c(=O)n3C)cc1` the Potency was active: 5.8 µM. For `COC(=O)c1ccc(Nc2ccc3nonc3c2[N+](=O)[O-])cc1`, the Potency was inconclusive [activator, single point]. For `CCOC(=O)c1c(C)n(C)c2ccc(OCC(O)CN(CC)CC)cc12` (configuration not stated), the Potency was inconclusive [activator, full curve, poor fit]. For `CN(C)c1ccc(CC(=O)c2nc3ccccc3s2)cc1`, the Potency was inconclusive [activator, single point]. With `COc1ccccc1N1CCN(Cc2ccc(Br)o2)CC1` the Potency was “inactive”. In the case of `Cc1ccc(OCCn2c(NC(=O)c3ccco3)nc3ccccc32)cc1`, the Potency is reported as inconclusive [activator, partial curve].
